From publication PMC8070189, “Native Structure-Based Peptides as Potential Protein–Protein Interaction Inhibitors of SARS-CoV-2 Spike Protein and Human ACE2 Receptor” (Molecules, 2021) come the findings set out here.

In this test the target is recombinant S-RBD protein (with an Fc tag) (SARS-CoV-2, UniProt P0DTC2). Description: ELISA. To be noted: both partners purified.

As for DKGNHEAED (also called 30-DKGNHEAED-38) [pep1c], the half-maximal inhibitory concentration (IC50) is 3.3 ± 0.8 mM.
